Laboratory results as given in the supplement of paper PMC4967469.
By IC50 is meant the dose at which the fit gives 50% viability; a limit (>, <) means that the fit lies beyond the doses tested. AUC sums up the same curve from the lowest dose to the 256-fold higher top dose; the more sensitive the line, the further below 1. For some assays here: Any top dose called inferred was derived from the fitted curves, not read from the paper.

What was measured:
Assay in all cases: Viability of human cancer cell lines after 72 h of drug (GDSC screen)
Tubastatin A = compound: CN1CCc2c(c3ccccc3n2Cc2ccc(C(=O)NO)cc2)C1 [Tubastatin A]; conditions: top dose 20 µM
Method: (§1)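 Human cancer cell lines in 384-well plates, medium with 10% serum, drug for 72 h over a 256-fold dose range (nine 2-fold or five 4-fold steps up to the top dose). Adherent lines were fixed and stained with the nucleic acid dye Syto60, suspension lines read with resazurin; signal relative to control wells, capped at 0 and 100%. One two-parameter sigmoid per drug and line, fitted in a mixed model over all curves with the slope shared within a line.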

XL-880 = compound: COc1cc2c(Oc3ccc(NC(=O)C4(C(=O)Nc5ccc(F)cc5)CC4)cc3F)ccnc2cc1OCCCN1CCOCC1 [XL-880]; conditions: top dose 5.12 µM; top dose inferred
Method: as §1

Temozolomide = compound: Cn1nnc2c(C(N)=O)ncn2c1=O [Temozolomide]; conditions: top dose 30 µM
Method: as §1

IPA-3 = compound: Oc1ccc2ccccc2c1SSc1c(O)ccc2ccccc12 [IPA-3]; conditions: top dose 32 µM; top dose inferred
Method: as §1

Cell Line | AUC (Tubastatin A) | IC50 (Tubastatin A) | AUC (XL-880) | IC50 (XL-880) | AUC (Temozolomide) | IC50 (Temozolomide) | AUC (IPA-3) | IC50 (IPA-3)
SW1116 (large intestine, adherent) | 0.98 | > 20 µM | 0.87 | > 5.12 µM | 0.983 | > 30 µM |  | 
HPAF-II (pancreas, adherent) | 0.969 | > 20 µM | 0.641 | 0.887 µM | 0.975 | > 30 µM | 0.98 | > 32 µM
SW156 (kidney, adherent) | 0.981 | > 20 µM | 0.703 | 1.29 µM | 0.977 | > 30 µM | 0.986 | > 32 µM
PL18 (pancreas, adherent) | 0.987 | > 20 µM | 0.717 | 1.31 µM | 0.98 | > 30 µM | 0.97 | > 32 µM
BPH-1 (prostate, adherent) | 0.954 | > 20 µM | 0.608 | 0.654 µM | 0.957 | > 30 µM | 0.887 | > 32 µM
HPAC (pancreas, adherent) | 0.965 | > 20 µM | 0.528 | 0.393 µM |  |  | 0.922 | > 32 µM
CAMA-1 (breast, adherent) | 0.957 | > 20 µM | 0.921 | > 5.12 µM | 0.937 | > 30 µM | 0.918 | > 32 µM
HO-1-N-1 (head and neck, adherent) | 0.979 | > 20 µM | 0.704 | 1.13 µM | 0.968 | > 30 µM | 0.988 | > 32 µM
MKN1 (stomach, adherent) | 0.979 | > 20 µM | 0.69 | 1.13 µM | 0.985 | > 30 µM | 0.856 | 28 µM
NCI-H2170 (lung squamous cell carcinoma, adherent) | 0.98 | > 20 µM | 0.919 | > 5.12 µM | 0.982 | > 30 µM | 0.966 | > 32 µM
KYSE-270 (oesophagus, adherent) | 0.982 | > 20 µM | 0.65 | 0.778 µM | 0.987 | > 30 µM | 0.767 | 10.2 µM
HSC-3 (head and neck, adherent) | 0.99 | > 20 µM | 0.754 | 1.5 µM | 0.957 | > 30 µM | 0.767 | 10.3 µM
NCI-H522 (lung adenocarcinoma, adherent) | 0.936 | > 20 µM | 0.756 | 2.05 µM | 0.979 | > 30 µM | 0.835 | 26.9 µM
COR-L303 (small cell lung carcinoma, suspension) | 0.816 | 10.6 µM | 0.625 | 0.698 µM |  |  |  | 
COR-L32 (small cell lung carcinoma, suspension) |  |  |  |  | 0.941 | > 30 µM |  | 
BCPAP (thyroid, adherent) | 0.959 | > 20 µM | 0.524 | 0.37 µM | 0.969 | > 30 µM | 0.875 | 26.4 µM
SW900 (lung squamous cell carcinoma, adherent) | 0.959 | > 20 µM | 0.753 | 1.96 µM | 0.971 | > 30 µM | 0.854 | > 32 µM
COLO-792 (melanoma, adherent) | 0.987 | > 20 µM | 0.893 | > 5.12 µM | 0.987 | > 30 µM | 0.982 | > 32 µM
SNU-423 (liver, adherent) | 0.967 | > 20 µM | 0.622 | 0.738 µM | 0.972 | > 30 µM | 0.901 | > 32 µM
OSC-19 (head and neck, adherent) | 0.976 | > 20 µM | 0.638 | 0.785 µM | 0.963 | > 30 µM | 0.769 | 12.6 µM
MDA-MB-157 (breast, adherent) | 0.984 | > 20 µM | 0.792 | 2.38 µM | 0.987 | > 30 µM | 0.975 | > 32 µM
NCI-H1573 (lung adenocarcinoma, adherent) | 0.988 | > 20 µM | 0.834 | 3.21 µM | 0.99 | > 30 µM | 0.985 | > 32 µM
SNU-1040 (large intestine, adherent) | 0.982 | > 20 µM | 0.719 | 1.68 µM | 0.974 | > 30 µM |  | 
LU-99A (large cell lung carcinoma, adherent) | 0.92 | > 20 µM | 0.65 | 0.83 µM | 0.968 | > 30 µM | 0.96 | > 32 µM
SISO (cervix, adherent) | 0.957 | > 20 µM | 0.665 | 0.901 µM | 0.89 | > 30 µM | 0.983 | > 32 µM
BICR31 (head and neck, adherent) | 0.988 | > 20 µM | 0.733 | 1.48 µM |  |  | 0.815 | 17.8 µM

Cell Line | AUC (Tubastatin A) | IC50 (Tubastatin A) | AUC (XL-880) | IC50 (XL-880) | AUC (Temozolomide) | IC50 (Temozolomide) | AUC (IPA-3) | IC50 (IPA-3)
Caov-3 (ovary, adherent) | 0.991 | > 20 µM | 0.593 | 0.558 µM |  |  | 0.964 | > 32 µM
U031 (kidney, adherent) | 0.952 | > 20 µM | 0.767 | 1.97 µM | 0.983 | > 30 µM | 0.771 | 12.7 µM
SNU-475 (liver, adherent) |  |  | 0.549 | 0.429 µM |  |  | 0.919 | > 32 µM
786-0 (kidney, adherent) | 0.959 | > 20 µM | 0.559 | 0.459 µM | 0.955 | > 30 µM | 0.556 | 2.81 µM
BEN (non-small cell lung carcinoma, adherent) | 0.955 | > 20 µM | 0.767 | 2.18 µM | 0.985 | > 30 µM | 0.976 | > 32 µM
GAMG (glioma, adherent) | 0.944 | > 20 µM | 0.527 | 0.38 µM | 0.983 | > 30 µM | 0.699 | 7.49 µM
NCI-H2030 (lung adenocarcinoma, adherent) | 0.95 | > 20 µM | 0.628 | 0.762 µM | 0.977 | > 30 µM | 0.952 | > 32 µM
KYSE-180 (oesophagus, adherent) | 0.96 | > 20 µM | 0.51 | 0.339 µM | 0.931 | > 30 µM | 0.988 | > 32 µM
SW1463 (large intestine, adherent) | 0.971 | > 20 µM | 0.895 | > 5.12 µM | 0.975 | > 30 µM | 0.976 | > 32 µM
RT-112 (bladder, adherent) | 0.92 | > 20 µM | 0.477 | 0.275 µM | 0.983 | > 30 µM | 0.784 | 14.7 µM
HLE (liver, adherent) | 0.945 | > 20 µM | 0.656 | 0.845 µM | 0.978 | > 30 µM | 0.652 | 5.16 µM
SNU-175 (large intestine, suspension) | 0.983 | > 20 µM | 0.513 | 0.347 µM |  |  |  | 
SN12C (kidney, adherent) | 0.985 | > 20 µM | 0.906 | > 5.12 µM | 0.975 | > 30 µM | 0.985 | > 32 µM
ChaGo-K-1 (non-small cell lung carcinoma, adherent) | 0.98 | > 20 µM | 0.786 | 2.59 µM | 0.982 | > 30 µM | 0.842 | 27.8 µM
J82 (bladder, adherent) | 0.982 | > 20 µM | 0.749 | 1.65 µM | 0.987 | > 30 µM | 0.727 | 8.77 µM
A172 (glioma, adherent) | 0.988 | > 20 µM | 0.665 | 0.905 µM | 0.97 | > 30 µM | 0.828 | 18.8 µM
NCI-H2085 (lung adenocarcinoma, adherent) | 0.973 | > 20 µM | 0.663 | 0.944 µM | 0.985 | > 30 µM | 0.712 | 8.41 µM
SW1088 (glioma, adherent) | 0.98 | > 20 µM | 0.607 | 0.687 µM | 0.948 | > 30 µM | 0.853 | > 32 µM
CHP-134 (neuroblastoma, suspension) | 0.923 | > 20 µM | 0.544 | 0.436 µM |  |  |  | 
PC-3 (prostate, adherent) | 0.943 | > 20 µM |  |  | 0.981 | > 30 µM | 0.869 | > 32 µM
VM-CUB-1 (bladder, adherent) | 0.985 | > 20 µM | 0.771 | 1.89 µM |  |  | 0.888 | > 32 µM
YMB-1-E (breast, adherent) | 0.969 | > 20 µM | 0.886 | > 5.12 µM |  |  |  | 
COR-L311 (small cell lung carcinoma, suspension) |  |  | 0.806 | 2.84 µM |  |  |  | 
NCI-H2228 (lung adenocarcinoma, adherent) | 0.974 | > 20 µM | 0.631 | 0.888 µM |  |  | 0.961 | > 32 µM
HeLa (cervix, adherent) |  |  | 0.693 | 1.08 µM |  |  | 0.881 | 31 µM
SNU-398 (liver, adherent) |  |  | 0.643 | 0.81 µM | 0.981 | > 30 µM | 0.802 | 16.5 µM
